# Test results reported in the supplement of paper PMC8728848.
# The other results are listed elsewhere or left out.
# Experiments:
# Experiment in all cases: glycan array binding signal (z-score within array); higher = stronger binding
# Conditions in all cases: glycan notation: IUPAC condensed, linker removed
# [1] = molecular target: Neu5Ac(a2-3)Gal(b1-4)[Fuc(a1-3)]GlcNAc(b1-6)[Gal(b1-3)]GalNAc
# Outline: (§1)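 Glycan array data came from 3228 arrays in the Consortium for Functional Glycomics database, and only arrays with an available protein sequence were kept. Glycan names were put into IUPAC-condensed notation, and columns mapping to the same glycan were averaged. The binding signal is a within-array Z-score, averaged across arrays of one protein sequence run at different concentrations or buffers and across linkers. A negative Z-score can be read as non-binding.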
# [2] = molecular target: Neu5Ac(a2-3)Gal(b1-4)[Fuc(a1-3)]GlcNAc6S
# Outline: as §1
# [3] = molecular target: Neu5Ac(a2-3)Gal6S(b1-4)GlcNAc
# Outline: as §1
# [4] = molecular target: Neu5Ac(a2-3)Gal6S(b1-4)[Fuc(a1-3)]GlcNAc
# Outline: as §1
# [5] = molecular target: Neu5Ac(a2-3)GalNAc
# Outline: as §1
# [6] = molecular target: Neu5Ac(a2-3)GalNAc(b1-4)GlcNAc
# Outline: as §1
# [7] = molecular target: Neu5Ac(a2-3)[GalNAc(b1-4)]Gal(b1-4)Glc
# Outline: as §1
# [8] = molecular target: Neu5Ac(a2-3)[GalNAc(b1-4)]Gal(b1-4)GlcNAc
# Outline: as §1
# [9] = molecular target: Neu5Ac(a2-3)[GalNAc(b1-4)]Gal(b1-4)GlcNAc(b1-3)GalNAc
# Outline: as §1
# [10] = molecular target: Neu5Ac(a2-3)[Neu5Ac(a2-6)]GalNAc
# Outline: as §1
# [11] = molecular target: Neu5Ac(a2-6)Gal
# Outline: as §1
# [12] = molecular target: Neu5Ac(a2-6)Gal(b1-3)GlcNAc(b1-3)[Gal(b1-4)GlcNAc(b1-6)]Gal(b1-4)Glc
# Outline: as §1
# [13] = molecular target: Neu5Ac(a2-6)Gal(b1-4)Glc
# Outline: as §1
# [14] = molecular target: Neu5Ac(a2-6)Gal(b1-4)GlcNAc
# Outline: as §1
# [15] = molecular target: Neu5Ac(a2-6)Gal(b1-4)GlcNAc(b1-2)Man(a1-3)Man(b1-4)GlcNAc(b1-4)GlcNAc
# Outline: as §1
# [16] = molecular target: Neu5Ac(a2-6)Gal(b1-4)GlcNAc(b1-2)Man(a1-3)[Gal(b1-4)GlcNAc(b1-2)Man(a1-6)]Man(b1-4)GlcNAc(b1-4)GlcNAc
# Outline: as §1
# [17] = molecular target: Neu5Ac(a2-6)Gal(b1-4)GlcNAc(b1-2)Man(a1-3)[GlcNAc(b1-2)Man(a1-6)]Man(b1-4)GlcNAc(b1-4)GlcNAc
# Outline: as §1
# [18] = molecular target: Neu5Ac(a2-6)Gal(b1-4)GlcNAc(b1-2)Man(a1-3)[GlcNAc(b1-2)Man(b1-4)GlcNAc(b1-2)Man(a1-6)]Man(b1-4)GlcNAc(b1-4)GlcNAc
# Outline: as §1
# [19] = molecular target: Neu5Ac(a2-6)Gal(b1-4)GlcNAc(b1-2)Man(a1-3)[Man(a1-6)]Man(b1-4)GlcNAc(b1-4)GlcNAc
# Outline: as §1
# [20] = molecular target: Neu5Ac(a2-6)Gal(b1-4)GlcNAc(b1-2)Man(a1-3)[Neu5Ac(a2-6)Gal(b1-4)GlcNAc(b1-2)Man(a1-6)]Man(b1-4)GlcNAc(b1-4)GlcNAc
# Outline: as §1
# [21] = molecular target: Neu5Ac(a2-6)Gal(b1-4)GlcNAc(b1-2)Man(a1-3)[Neu5Ac(a2-6)Gal(b1-4)GlcNAc(b1-2)Man(a1-6)]Man(b1-4)GlcNAc(b1-4)[Fuc(a1-6)]GlcNAc
# Outline: as §1
# [22] = molecular target: Neu5Ac(a2-6)Gal(b1-4)GlcNAc(b1-2)Man(a1-6)Man(b1-4)GlcNAc(b1-4)GlcNAc
# Outline: as §1
# [23] = molecular target: Neu5Ac(a2-6)Gal(b1-4)GlcNAc(b1-2)Man(a1-6)[Gal(b1-4)GlcNAc(b1-2)Man(a1-3)]Man(b1-4)GlcNAc(b1-4)GlcNAc
# Outline: as §1
# [24] = molecular target: Neu5Ac(a2-6)Gal(b1-4)GlcNAc(b1-2)Man(a1-6)[GlcNAc(b1-2)Man(a1-3)]Man(b1-4)GlcNAc(b1-4)GlcNAc
# Outline: as §1
# [25] = molecular target: Neu5Ac(a2-6)Gal(b1-4)GlcNAc(b1-2)Man(a1-6)[Man(a1-3)]Man(b1-4)GlcNAc(b1-4)GlcNAc
# Outline: as §1
# [26] = molecular target: Neu5Ac(a2-6)Gal(b1-4)GlcNAc(b1-3)Gal(b1-3)GlcNAc
# Outline: as §1
# [27] = molecular target: Neu5Ac(a2-6)Gal(b1-4)GlcNAc(b1-3)Gal(b1-4)GlcNAc
# Outline: as §1
# [28] = molecular target: Neu5Ac(a2-6)Gal(b1-4)GlcNAc(b1-3)Gal(b1-4)GlcNAc(b1-3)Gal(b1-4)GlcNAc
# Outline: as §1
# [29] = molecular target: Neu5Ac(a2-6)Gal(b1-4)GlcNAc(b1-3)Gal(b1-4)[Fuc(a1-3)]GlcNAc(b1-3)Gal(b1-4)[Fuc(a1-3)]GlcNAc
# Outline: as §1
# [30] = molecular target: Neu5Ac(a2-6)Gal(b1-4)GlcNAc(b1-3)GalNAc
# Outline: as §1
# [31] = molecular target: Neu5Ac(a2-6)Gal(b1-4)GlcNAc(b1-3)[Neu5Ac(a2-6)Gal(b1-4)GlcNAc(b1-6)]GalNAc
# Outline: as §1
# [32] = molecular target: Neu5Ac(a2-6)Gal(b1-4)GlcNAc(b1-6)GalNAc
# Outline: as §1
# [33] = molecular target: Neu5Ac(a2-6)Gal(b1-4)GlcNAc(b1-6)[Gal(b1-3)GlcNAc(b1-3)]Gal(b1-4)Glc
# Outline: as §1
# [34] = molecular target: Neu5Ac(a2-6)Gal(b1-4)GlcNAc6S
# Outline: as §1
# [35] = molecular target: Neu5Ac(a2-6)GalNAc
# Outline: as §1
# [36] = molecular target: Neu5Ac(a2-6)GalNAc(b1-4)GlcNAc
# Outline: as §1
# [37] = molecular target: Neu5Ac(a2-6)GalNAc(b1-4)GlcNAc6S
# Outline: as §1
# [38] = molecular target: Neu5Ac(a2-6)GlcNAc(b1-4)GlcNAc
# Outline: as §1
# [39] = molecular target: Neu5Ac(a2-6)GlcNAc(b1-4)GlcNAc(b1-4)GlcNAc
# Outline: as §1
# [40] = molecular target: Neu5Ac(a2-8)Neu5Ac
# Outline: as §1
# [41] = molecular target: Neu5Ac(a2-8)Neu5Ac(a2-3)Gal(b1-3)GalNAc(b1-4)[Neu5Ac(a2-8)Neu5Ac(a2-3)]Gal(b1-4)Glc
# Outline: as §1
# [42] = molecular target: Neu5Ac(a2-8)Neu5Ac(a2-3)Gal(b1-4)Glc
# Outline: as §1
# [43] = molecular target: Neu5Ac(a2-8)Neu5Ac(a2-3)[Gal(b1-3)GalNAc(b1-4)]Gal(b1-4)Glc
# Outline: as §1
# [44] = molecular target: Neu5Ac(a2-8)Neu5Ac(a2-3)[GalNAc(b1-4)]Gal(b1-4)Glc
# Outline: as §1
# [45] = molecular target: Neu5Ac(a2-8)Neu5Ac(a2-8)Neu5Ac
# Outline: as §1
# [46] = molecular target: Neu5Ac(a2-8)Neu5Ac(a2-8)Neu5Ac(a2-3)Gal(b1-4)Glc
# Outline: as §1
# [47] = molecular target: Neu5Ac(a2-8)Neu5Ac(a2-8)Neu5Ac(a2-3)[GalNAc(b1-4)]Gal(b1-4)Glc
# Outline: as §1
# [48] = molecular target: Neu5Ac(a2-8)Neu5Ac(a2-8)Neu5Ac(a2-8)Neu5Ac(a2-3)[GalNAc(b1-4)]Gal(b1-4)Glc
# Outline: as §1
# [49] = molecular target: Neu5Ac(b1-6)GalNAc
# Outline: as §1
# [50] = molecular target: Neu5Ac(b2-6)Gal(b1-4)GlcNAc
# Outline: as §1
# [51] = molecular target: Neu5Ac(b2-6)GalNAc
# Outline: as §1
# [52] = molecular target: Neu5Ac9Ac(a2-3)Gal(b1-3)GlcNAc
# Outline: as §1
# [53] = molecular target: Neu5Ac9Ac(a2-3)Gal(b1-4)GlcNAc
# Outline: as §1
# [54] = molecular target: Neu5Ac9Ac(a2-6)Gal(b1-4)GlcNAc
# Outline: as §1
# [55] = molecular target: Neu5Gc(a2-3)Gal(b1-3)GlcNAc
# Outline: as §1
# [56] = molecular target: Neu5Gc(a2-3)Gal(b1-3)[Fuc(a1-4)]GlcNAc
# Outline: as §1
# [57] = molecular target: Neu5Gc(a2-3)Gal(b1-4)Glc
# Outline: as §1
# [58] = molecular target: Neu5Gc(a2-3)Gal(b1-4)GlcNAc
# Outline: as §1
# [59] = molecular target: Neu5Gc(a2-3)Gal(b1-4)[Fuc(a1-3)]GlcNAc
# Outline: as §1
# [60] = molecular target: Neu5Gc(a2-6)Gal(b1-4)GlcNAc
# Outline: as §1
binder,measurement,setting,value
"StcE (Escherichia coli), O82882.2 (protein) ADNNSAIYFNTSQPINDLQGSLAAEVKFAQSQILPAHPKEGDSQPHLTSLRKSLLLVRPVKADDKTPVQVEARDDNNKILGTLTLYPPSSLPDTIYHLDGVPEGGIDFTPHNGTKKIINTVAEVNKLSDASGSSIHSHLTNNALVEIHTANGRWVRDIYLPQGPDLEGKMVRFVSSAGYSSTVFYGDRKVTLSVGNTLLFKYVNGQWFRSGELENNRITYAQHIWSAELPAHWIVPGLNLVIKQGNLSGRLNDIKIGAPGELLLHTIDIGMLTTPRDRFDFAKDKEAHREYFQTIPVSRMIVNNYAPLHLKEVMLPTGELLTDMDPGNGGWHSGTMRQRIGKELVSHGIDNANYGLNSTAGLGENSHPYVVAQLAAHNSRGNYANGIQVHGGSGGGGIVTLDSTLGNEFSHEVGHNYGLGHYVDGFKGSVHRSAENNNSTWGWDGDKKRFIPNFYPSQTNEKSCLNNQCQEPFDGHKFGFDAMAGGSPFSAANRFTMYTPNSSAIIQRFFENKAVFDSRSSTGFSKWNADTQEMEPYEHTIDRAEQITASVNELSESKMAELMAEYAVVKVHMWNGNWTRNIYIPTASADNRGSILTINHEAGYNSYLFINGDEKVVSQGYKKSFVSDGQFWKERDVVDTREARKPEQFGVPVTTLVGYYDPEGTLSSYIYPAMYGAYGFTYSDDSQNLSDNDCQLQVDTKEGQLRFRLANHRANNTVMNKFHINVPTESQPTQATLVCNNKILDTKSLTPAPEGLTYTVNGQALPAKENEGCIVSVNSGKRYCLPVGQRSGYSLPDWIVGQEVYVDSGAKAKVLLSDWDNLSYNRIGEFVGNVNPADMKKVKAWNGQYLDFSKPRSMRVVYK",glycan array binding signal (z-score),[1],-0.112
same,glycan array binding signal (z-score),[2],2.84
same,glycan array binding signal (z-score),[3],-0.098
same,glycan array binding signal (z-score),[4],-0.148
same,glycan array binding signal (z-score),[5],-0.499
same,glycan array binding signal (z-score),[6],-0.153
same,glycan array binding signal (z-score),[7],-0.133
same,glycan array binding signal (z-score),[8],-0.496
same,glycan array binding signal (z-score),[9],-0.116
same,glycan array binding signal (z-score),[10],-0.349
same,glycan array binding signal (z-score),[11],1.99
same,glycan array binding signal (z-score),[12],-0.132
same,glycan array binding signal (z-score),[13],-0.084
same,glycan array binding signal (z-score),[14],-0.194
same,glycan array binding signal (z-score),[15],-0.095
same,glycan array binding signal (z-score),[16],-0.037
same,glycan array binding signal (z-score),[17],-0.148
same,glycan array binding signal (z-score),[18],-0.098
same,glycan array binding signal (z-score),[19],-0.152
same,glycan array binding signal (z-score),[20],-0.132
same,glycan array binding signal (z-score),[21],-0.176
same,glycan array binding signal (z-score),[22],-0.148
same,glycan array binding signal (z-score),[23],-0.133
same,glycan array binding signal (z-score),[24],-0.167
same,glycan array binding signal (z-score),[25],-0.149
same,glycan array binding signal (z-score),[26],-0.146
same,glycan array binding signal (z-score),[27],-0.16
same,glycan array binding signal (z-score),[28],-0.152
same,glycan array binding signal (z-score),[29],0.622
same,glycan array binding signal (z-score),[30],2.78
same,glycan array binding signal (z-score),[31],0.038
same,glycan array binding signal (z-score),[32],0.003
same,glycan array binding signal (z-score),[33],-0.132
same,glycan array binding signal (z-score),[34],-0.352
same,glycan array binding signal (z-score),[35],-0.384
same,glycan array binding signal (z-score),[36],-0.163
same,glycan array binding signal (z-score),[37],-0.127
same,glycan array binding signal (z-score),[38],-0.156
same,glycan array binding signal (z-score),[39],-0.126
same,glycan array binding signal (z-score),[40],-0.092
same,glycan array binding signal (z-score),[41],-0.162
same,glycan array binding signal (z-score),[42],-0.128
same,glycan array binding signal (z-score),[43],-0.174
same,glycan array binding signal (z-score),[44],-0.293
same,glycan array binding signal (z-score),[45],-0.095
same,glycan array binding signal (z-score),[46],0.545
same,glycan array binding signal (z-score),[47],-0.213
same,glycan array binding signal (z-score),[48],-0.155
same,glycan array binding signal (z-score),[49],-0.711
same,glycan array binding signal (z-score),[50],-0.153
same,glycan array binding signal (z-score),[51],-0.105
same,glycan array binding signal (z-score),[52],-0.193
same,glycan array binding signal (z-score),[53],-0.161
same,glycan array binding signal (z-score),[54],-0.277
same,glycan array binding signal (z-score),[55],-0.187
same,glycan array binding signal (z-score),[56],-0.154
same,glycan array binding signal (z-score),[57],0.108
same,glycan array binding signal (z-score),[58],-0.113
same,glycan array binding signal (z-score),[59],-0.569
same,glycan array binding signal (z-score),[60],-0.504
